# Test results published in PubChem BioAssay AID588342 (National Center for Advancing Translational Sciences (NCATS), 2011).
# Screen size: about 360,000 compounds; about 25,000 (6.9%) were called active. Inconclusive means that the source gave no clear call. Such entries were picked first, then a sample of the others. Calls come from the whole dose curve; as a rule, active = well fitted inhibition curve with a large enough effect; inconclusive = small, poorly fitted or top-dose-only effect; inactive = flat fitted curve, though single readings scatter. A potency beside an inconclusive call is a rough fit, not a confirmed value.
# Molecular target: Luciferin 4-monooxygenase (Photinus pyralis) (UniProt P08659)
# Sequence of UniProt P08659 (P08659 whole entry, looked up): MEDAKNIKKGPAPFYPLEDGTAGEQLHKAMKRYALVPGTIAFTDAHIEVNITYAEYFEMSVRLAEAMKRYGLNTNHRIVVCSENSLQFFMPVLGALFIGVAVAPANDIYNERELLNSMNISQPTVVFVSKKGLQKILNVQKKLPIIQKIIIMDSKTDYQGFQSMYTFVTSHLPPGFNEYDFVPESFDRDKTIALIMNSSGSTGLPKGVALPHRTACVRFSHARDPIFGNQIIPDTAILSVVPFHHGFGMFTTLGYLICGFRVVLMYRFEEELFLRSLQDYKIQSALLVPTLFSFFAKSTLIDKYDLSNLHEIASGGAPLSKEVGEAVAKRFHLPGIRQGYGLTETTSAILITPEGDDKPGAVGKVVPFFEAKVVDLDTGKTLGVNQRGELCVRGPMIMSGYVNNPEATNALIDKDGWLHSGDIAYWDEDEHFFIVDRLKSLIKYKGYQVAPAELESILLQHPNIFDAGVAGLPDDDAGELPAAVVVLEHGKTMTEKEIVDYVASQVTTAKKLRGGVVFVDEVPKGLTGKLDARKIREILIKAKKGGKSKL
# Assay: qHTS profiling assay for firefly luciferase inhibitor/activator using purifed enzyme and Km concentrations of substrates (counterscreen for miR-21 project); note: nearly all actives have a fitted effect of over 55% in size
# Conditions: purified FLuc, luminescence inhibition; series mostly up to 57.5 µM
# How it was run: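 Biochemical qHTS of compounds, final roughly 60 µM downward over six points, against 10 nM purified firefly luciferase using Km concentrations of substrates (10 uM D-luciferin, 10 uM ATP) in Tris acetate pH 7.5 buffer; luminescence output.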
# Potency is the fitted concentration of half-maximal effect; tags give direction and shape of the fitted curve.
row,SMILES,Potency
1,O=C(NC(=S)Nc1ccc(N2CCCCC2)cc1)c1cccs1,active: 5.36 µM
2,COc1ccc(N2CCN(C(=O)c3cc4cc(Cl)ccc4[nH]3)CC2)cc1,inactive
3,COc1ccc(/C=N/NC(=O)c2ccc(Br)cc2)cc1CN1CCOCC1,inactive
4,COc1ccc(NC(=O)c2cnc3sc(N4CCOCC4)nn3c2=O)c(OC)c1,inactive
5,O=C(Oc1ccc(Br)cc1)c1cccnc1,"inconclusive: 37.9 µM [inhibitor, single point]"
6,Cc1ccc(S(=O)(=O)NCC(=O)OCC(=O)c2cc(C)n(-c3ccccc3)c2C)cc1,active: 15.1 µM
7,O=[N+]([O-])c1ccc2c(c1)[nH]c(=S)n2-c1ccccc1,"inconclusive: 26.9 µM [inhibitor, partial curve, poor fit]"
8,CCN(CC)CCN1C(=O)C2C(C(=O)Nc3cc(C)cc(C)c3)C3C=CC2(O3)C1C(=O)NC1CCCCC1 (stereo unspecified),inactive
9,Cc1cccc(NC(=O)Nc2ccc(S(N)(=O)=O)cc2)c1,"inconclusive: 33.8 µM [inhibitor, partial curve, poor fit]"
10,O=C(c1cccnc1)N1CCC(Oc2ccc(C(=O)N3CCCCO3)cc2)CC1,inactive
11,O=C1C(NS(=O)(=O)c2ccc(Br)cc2)=C(N2CCCCC2)C(=O)c2ccccc21,"inconclusive: 37.9 µM [inhibitor, partial curve, poor fit]"
12,O=C1CCCN1c1ccc(S(=O)(=O)NCc2ccc(F)cc2)cc1,inactive
13,CCCc1cc(=O)oc2c(C)c(OCC(=O)Nc3ccccn3)ccc12,active: 1.69 µM
14,Cc1ccc(OCCSc2nc3ccccc3n2CC(=O)O)cc1,"inconclusive: 26.9 µM [inhibitor, single point]"
15,Cc1ccc(C(=O)Oc2ccc(-c3nnco3)cc2)o1,"inconclusive: 12 µM [inhibitor, partial curve, poor fit]"
16,COc1ccc2nc(SCc3ccccc3C)nc(C)c2c1,"inconclusive: 10.7 µM [inhibitor, partial curve]"
17,Cc1cc(C)c(C(=O)COC(=O)c2ccc([N+](=O)[O-])o2)cc1C,inactive
18,COC(=O)c1cc(-c2c[nH]c3ccccc23)n[nH]1,"inconclusive: 26.9 µM [inhibitor, partial curve, poor fit]"
19,CN(C)c1nc(-c2ccccc2)ncc1S(=O)(=O)c1ccccc1,"inconclusive: 37.9 µM [inhibitor, single point]"
20,COc1cc(-c2nc3ccc(C)cn3c2NCc2ccccc2)ccc1SC1CCCCC1,inactive
21,CCn1c2ccccc2c2cc(NC(=O)COc3ccccc3)ccc21,"inconclusive: 37.9 µM [inhibitor, partial curve, poor fit]"
